{"source": "the antibiotic and cytotoxicity screens of Wong et al. (2023)", "note": "Some of the results follow.", "data": [{"test_system": "HepG2", "assay": "cytotoxicity call (relative viability < 0.9)", "settings": "10 µM", "values": [{"smiles": "CC(C)NC(=O)Nc1ccc2c(c1)C(=O)N([C@@H](C)CO)C[C@@H](C)[C@@H](CN(C)S(C)(=O)=O)OCCCC[C@@H](C)O2", "cytotoxicity call": "inactive"}, {"smiles": "Cc1noc(C)c1N", "cytotoxicity call": "inactive"}, {"smiles": "C[C@@H]1CCCCO[C@H](CN(C)C(=O)Nc2ccc(C(F)(F)F)cc2)[C@@H](C)CN([C@@H](C)CO)C(=O)c2cc(NC(=O)CCC(F)(F)F)ccc2O1", "cytotoxicity call": "inactive"}, {"smiles": "NC(CCC(=O)NC(CS)C(=O)NCC(=O)O)C(=O)O", "note": "(stereo not given)", "cytotoxicity call": "inactive"}, {"smiles": "C[C@@H]1CN([C@H](C)CO)S(=O)(=O)c2ccc(-c3ccccc3F)cc2O[C@@H]1CN(C)S(C)(=O)=O", "cytotoxicity call": "inactive"}, {"smiles": "CCC[C@@H](O)C#Cc1cnc2c(c1)C(=O)N([C@H](C)CO)C[C@H](C)[C@H](CN(C)S(=O)(=O)c1ccc(C)cc1)O2", "cytotoxicity call": "inactive"}, {"smiles": "COCCNC(=O)C[C@@H]1CC[C@H]2[C@@H](COC[C@@H](O)CN2C(=O)Nc2ccc3c(c2)OCO3)O1", "cytotoxicity call": "inactive"}, {"smiles": "O=C(C[C@H]1C[C@H]2c3cc(NS(=O)(=O)c4ccc(F)cc4)ccc3O[C@H]2[C@H](CO)O1)N1CCOCC1", "cytotoxicity call": "inactive"}, {"smiles": "Cl.Cl.OCCN1CCN(CCCN2c3ccccc3Sc3ccc(C(F)(F)F)cc32)CC1", "cytotoxicity call": "active"}, {"smiles": "C[C@H]1CCCCO[C@H](CN(C)C(=O)NC2CCCCC2)[C@@H](C)CN([C@@H](C)CO)C(=O)c2cc(NC(=O)Nc3ccc4c(c3)OCO4)ccc2O1", "cytotoxicity call": "inactive"}, {"smiles": "COc1cccc(-c2ccc3c(c2)O[C@@H](CN(C)C(=O)C2CC2)[C@H](C)CN([C@H](C)CO)S3(=O)=O)c1", "cytotoxicity call": "inactive"}, {"smiles": "OCCC[C@@H](O)c1ccc(OCCO)cc1", "cytotoxicity call": "inactive"}, {"smiles": "Cc1ccc(S[C@]2(C(=O)O)CC(=O)N(Cc3cc(C(F)(F)F)cc(C(F)(F)F)c3)[C@@H]2c2ccc(CO)cc2)cc1", "cytotoxicity call": "inactive"}, {"smiles": "COc1ccc(NC(=O)N(C)C[C@H]2Oc3ccc(NC(=O)CCN4CCOCC4)cc3C(=O)N([C@@H](C)CO)C[C@@H]2C)cc1", "cytotoxicity call": "inactive"}, {"smiles": "COc1ccc(S(=O)(=O)Nc2ccc3c(c2)CC(=O)N([C@H](C)CO)C[C@@H](C)[C@H](CN(C)C(=O)NC(C)C)O3)cc1", "cytotoxicity call": "inactive"}, {"smiles": "CCCN(C)C[C@@H]1OCCCC[C@@H](C)Oc2ccc(NC(=O)C3CCCCC3)cc2C(=O)N([C@H](C)CO)C[C@@H]1C", "cytotoxicity call": "inactive"}, {"smiles": "C[C@H](CO)N1C[C@H](C)[C@@H](CN(C)C)Oc2cc(C#CCN(C)C)ccc2S1(=O)=O", "cytotoxicity call": "inactive"}, {"smiles": "C[C@@H]1CN([C@@H](C)CO)C(=O)c2cc(NC(=O)NC3CCCCC3)ccc2O[C@@H](C)CCCCO[C@H]1CN(C)Cc1ccc(C(F)(F)F)cc1", "cytotoxicity call": "active"}, {"smiles": "C[C@H]1CN([C@@H](C)CO)S(=O)(=O)c2ccc(C#CC3(O)CCCC3)cc2O[C@@H]1CN(C)C(=O)Nc1ccc(F)cc1", "cytotoxicity call": "inactive"}, {"smiles": "Cc1noc(C)c1S(=O)(=O)N(C)C[C@H]1Oc2ccc(NC(=O)CCC(F)(F)F)cc2CC(=O)N([C@H](C)CO)C[C@@H]1C", "cytotoxicity call": "inactive"}, {"smiles": "COCCNC(=O)C[C@H]1CC[C@H](NS(=O)(=O)c2ccc(C)cc2)[C@H](CO)O1", "cytotoxicity call": "inactive"}, {"smiles": "O=C(C[C@H]1C[C@H]2c3cc(NS(=O)(=O)c4ccc(F)cc4)ccc3O[C@H]2[C@H](CO)O1)NC1CCCC1", "cytotoxicity call": "inactive"}, {"smiles": "COc1ccc(NC(=O)Nc2ccc3c(c2)C(=O)N([C@H](C)CO)C[C@H](C)[C@@H](CN(C)Cc2ccc(Cl)c(Cl)c2)O3)cc1", "cytotoxicity call": "inactive"}, {"smiles": "C[C@H]1CCCCO[C@@H](CN(C)C(=O)C2CCCCC2)[C@@H](C)CN([C@@H](C)CO)C(=O)c2cc(NS(=O)(=O)c3ccccc3)ccc2O1", "cytotoxicity call": "inactive"}, {"smiles": "C[C@@H]1CN([C@@H](C)CO)C(=O)Cc2cc(NC(=O)Cc3cn(C)c4ccccc34)ccc2O[C@H]1CN(C)CC1CCCCC1", "cytotoxicity call": "inactive"}, {"smiles": "Cl.NCCCCCC(=O)O", "cytotoxicity call": "inactive"}, {"smiles": "COc1ccc2c3c([nH]c2c1)[C@@H](CO)N(C[C@]13CCN(CC1)S(=O)(=O)c1ccccc1)C(=O)c1cnccn1", "cytotoxicity call": "inactive"}, {"smiles": "COc1ccc(S(=O)(=O)Nc2ccc3c(c2)CC(=O)N([C@H](C)CO)C[C@@H](C)[C@@H](CN(C)S(=O)(=O)c2ccc(F)cc2)O3)cc1", "cytotoxicity call": "inactive"}, {"smiles": "CCCNC(=O)C[C@H]1CC[C@@H]2[C@@H](COc3ccc(NS(=O)(=O)c4ccccc4C)cc3C(=O)N2C)O1", "cytotoxicity call": "inactive"}, {"smiles": "O=C(NCCN1CCCC1)[C@H]1[C@H](CO)[C@H]2Cn3c(cccc3=O)[C@@H]1N2C(=O)NC1CCCC1", "cytotoxicity call": "inactive"}, {"smiles": "COC(=O)C[C@H]1CC[C@H]2[C@@H](COC[C@H](O)CN2S(=O)(=O)c2ccccc2C)O1", "cytotoxicity call": "inactive"}, {"smiles": "C[C@@H]1CN([C@@H](C)CO)C(=O)c2cc(NC(=O)Nc3ccc(F)cc3)ccc2O[C@H]1CN(C)Cc1ccc(Cl)c(Cl)c1", "cytotoxicity call": "inactive"}, {"smiles": "COc1ccc(CN(C)C[C@@H]2Oc3c(NS(=O)(=O)c4cn(C)cn4)cccc3C(=O)N([C@@H](C)CO)C[C@H]2C)cc1", "cytotoxicity call": "inactive"}, {"smiles": "C[C@@H]1CN([C@H](C)CO)C(=O)c2cc(NC(=O)Cc3ccccc3)ccc2O[C@@H](C)CCCCO[C@@H]1CN(C)C(=O)C1CCCCC1", "cytotoxicity call": "inactive"}, {"smiles": "Cc1noc(C)c1NC(=O)Nc1ccc2c(c1)C(=O)N([C@H](C)CO)C[C@H](C)[C@H](CN(C)C(=O)Nc1cccc3ccccc13)OCCCC[C@@H](C)O2", "cytotoxicity call": "inactive"}, {"smiles": "Cc1ccc(S(=O)(=O)Nc2ccc3c(c2)C(=O)N([C@H](C)CO)C[C@H](C)[C@@H](CN(C)S(=O)(=O)c2cccs2)O3)cc1", "cytotoxicity call": "inactive"}, {"smiles": "COc1ccc(S(=O)(=O)N(C)C[C@H]2OCCCC[C@H](C)Oc3ccc(NS(C)(=O)=O)cc3C(=O)N([C@@H](C)CO)C[C@@H]2C)cc1", "cytotoxicity call": "inactive"}, {"smiles": "C[C@H]1CC/C=C\\[C@H]2O[C@@]34C=CCN(c5ccc6ccccc6c5)C(=O)[C@H]3N(CCO)C(=O)[C@@H]4[C@@H]2C(=O)O1", "cytotoxicity call": "inactive"}, {"smiles": "C[C@@H]1CN([C@@H](C)CO)C(=O)c2cc(-c3ccncc3)cnc2O[C@@H]1CN(C)S(=O)(=O)c1ccccc1", "cytotoxicity call": "inactive"}, {"smiles": "NCC[C@@H]1CC[C@@H](NC(=O)Cc2ccncc2)[C@@H](CO)O1", "cytotoxicity call": "inactive"}]}]}
